Source: patent US12365664B2, “Small molecule inhibitors of SRC tyrosine kinase” (Dana-Farber Cancer Institute, Inc., priority 2019, dated 2025)

How the values were obtained:
[1] = target: SRC (Homo sapiens (Human), UniProt P12931); experiment: SelectScreen Kinase Profiling Services commercial assay (ThermoFisher), SRC; format: biochemical
[2] = target: YES1 (Homo sapiens (Human), UniProt P07947); experiment: SelectScreen Kinase Profiling Services commercial assay (ThermoFisher), YES1; format: biochemical
UniProt P07947, sequence (P07947 whole entry): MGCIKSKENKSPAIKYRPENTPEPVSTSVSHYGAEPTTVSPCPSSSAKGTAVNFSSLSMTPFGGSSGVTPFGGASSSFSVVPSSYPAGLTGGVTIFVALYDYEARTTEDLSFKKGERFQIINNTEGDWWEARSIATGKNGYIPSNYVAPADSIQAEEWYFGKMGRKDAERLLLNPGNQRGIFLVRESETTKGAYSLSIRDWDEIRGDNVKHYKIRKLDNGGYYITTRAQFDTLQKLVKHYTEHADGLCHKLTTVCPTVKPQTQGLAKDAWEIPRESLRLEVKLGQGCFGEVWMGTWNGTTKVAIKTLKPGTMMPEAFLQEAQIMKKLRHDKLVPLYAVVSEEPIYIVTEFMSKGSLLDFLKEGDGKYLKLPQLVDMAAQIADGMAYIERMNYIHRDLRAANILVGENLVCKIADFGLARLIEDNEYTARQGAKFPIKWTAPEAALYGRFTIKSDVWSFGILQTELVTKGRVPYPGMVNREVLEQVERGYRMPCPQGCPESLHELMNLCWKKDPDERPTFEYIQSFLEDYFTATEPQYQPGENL

[3] = tested on: p-SRC^Y416; experiment: Signaling analysis under washout conditions (pSRC Y416 Western blot); details: H1975 cells, 1 μM for 2 h, drug washout, lysed 0 h, 2 h and 4 h post-washout

UniProt P12931, sequence (P12931 whole entry): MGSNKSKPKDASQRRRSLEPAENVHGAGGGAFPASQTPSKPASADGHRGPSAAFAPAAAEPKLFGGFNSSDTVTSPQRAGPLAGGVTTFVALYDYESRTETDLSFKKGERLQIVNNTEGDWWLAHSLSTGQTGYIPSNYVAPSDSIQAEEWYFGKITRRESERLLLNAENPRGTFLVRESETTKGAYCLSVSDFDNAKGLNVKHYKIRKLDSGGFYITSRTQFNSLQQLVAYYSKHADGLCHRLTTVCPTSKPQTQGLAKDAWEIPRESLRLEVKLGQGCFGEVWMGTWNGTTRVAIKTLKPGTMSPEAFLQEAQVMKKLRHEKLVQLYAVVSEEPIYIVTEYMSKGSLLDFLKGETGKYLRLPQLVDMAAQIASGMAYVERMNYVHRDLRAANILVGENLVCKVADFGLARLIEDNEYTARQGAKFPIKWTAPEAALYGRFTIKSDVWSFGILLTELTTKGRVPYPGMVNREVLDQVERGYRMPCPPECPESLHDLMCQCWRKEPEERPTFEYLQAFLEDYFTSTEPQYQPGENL

SMILES	pIC50 [1]	pIC50 [2]	inhibition of p-SRC^Y416 signaling post-washout [3]
C=CC(=O)Nc1ccc(C(C)C)cc1Nc1nc(Nc2ccc(N3CCN(C)CC3)cc2)ncc1C(=O)Nc1c(C)cccc1Cl [Compound 37, N-(2-chloro-6-methylphenyl)-2-{[4-(4-methylpiperazin-1-yl)phenyl]amino}-4-{[2-(prop-2-enamido)-5-(propan-2-yl)phenyl]amino}pyrimidine-5-carboxamide]	6.00 to 7.00	8.00 to 9.00	–
C=CC(=O)Nc1ccccc1Nc1nc(Nc2ccc(N3CCN(C)CC3)cc2)ncc1C(=O)Nc1c(C)cccc1Cl [Compound 18, 4-((2-acrylamidophenyl)amino)-N-(2-chloro-6-methylphenyl)-2-((4-(4-methylpiperazin-1-yl)phenyl)amino)pyrimidine-5-carboxamide]	–	–	potent and sustained inhibition
C=CC(=O)Nc1cccc(C)c1Nc1nc(Nc2ccc(N3CCN(C)CC3)cc2)ncc1C(=O)Nc1c(C)cccc1Cl [Compound 36, N-(2-chloro-6-methylphenyl)-4-{[2-methyl-6-(prop-2-enamido)phenyl]amino}-2-{[4-(4-methylpiperazin-1-yl)phenyl]amino}pyrimidine-5-carboxamide]	6.00 to 7.00	8.00 to 9.00	–
C=CC(=O)Nc1cccc(F)c1Nc1nc(Nc2ccc(N3CCN(C)CC3)cc2)ncc1Cl [Compound 38, N-{2-[(5-chloro-2-{[4-(4-methylpiperazin-1-yl)phenyl]amino}pyrimidin-4-yl)amino]-3-fluorophenyl}prop-2-enamide]	8.00 to 9.00	8.00 to 9.00	–
C=CC(=O)Nc1ccc(F)cc1Nc1nc(Nc2ccc(N3CCN(C)CC3)cc2)ncc1C(=O)Nc1c(C)cccc1Cl [Compound 41, N-(2-chloro-6-methylphenyl)-4-{[5-fluoro-2-(prop-2-enamido)phenyl]amino}-2-{[4-(4-methylpiperazin-1-yl)phenyl]amino}pyrimidine-5-carboxamide]	8.00 to 9.00	> 9.00	–
C=CC(=O)Nc1ccccc1Nc1nc(Nc2ccc(N3CCN(C)CC3)cc2)ncc1OCc1ccc(Oc2ccccc2)cc1 [Compound 16, N-(2-((2-((4-(4-methylpiperazin-1-yl)phenyl)amino)-5-((4-phenoxybenzyl)oxy)pyrimidin-4-yl)amino)phenyl)acrylamide]	8.00 to 9.00	8.00 to 9.00	–
C=CC(=O)Nc1ccccc1Nc1nc(Nc2ccc(N3CCN(C)CC3)cc2)ncc1C(=O)Nc1ccc(Oc2ccccc2)cc1 [Compound 20, 4-((2-acrylamidophenyl)amino)-2-((4-(4-methylpiperazin-1-yl)phenyl)amino)-N-(4-phenoxyphenyl)pyrimidine-5-carboxamide]	5.00 to 6.00	5.00 to 6.00	–
C=CC(=O)Nc1c(C)cccc1Nc1nc(Nc2ccc(N3CCN(C)CC3)cc2)ncc1Cl [Compound 34, N-{2-[(5-chloro-2-{[4-(4-methylpiperazin-1-yl)phenyl]amino}pyrimidin-4-yl)amino]-6-methylphenyl}prop-2-enamide]	8.00 to 9.00	8.00 to 9.00	–

Further lines, with some results ahead:

pIC50 [1]	pIC50 [2]	SMILES	inhibition of p-SRC^Y416 signaling post-washout [3]
8.00 to 9.00	8.00 to 9.00	C=CC(=O)Nc1ccccc1Nc1nc(Nc2ccc(N3CCN(C)CC3)cc2)ncc1I [Compound 5, N-{2-[(5-iodo-2-{[4-(4-methylpiperazin-1-yl)phenyl]amino}pyrimidin-4-yl)amino]phenyl}prop-2-enamide]	–
8.00 to 9.00	8.00 to 9.00	C=CC(=O)Nc1ccccc1Nc1nc(Nc2ccc(N3CCN(C)CC3)cc2)ncc1-c1ccc(Oc2ccccc2)cc1 [Compound 7, N-(2-((2-((4-(4-methylpiperazin-1-yl)phenyl)amino)-5-(4-phenoxyphenyl)pyrimidin-4-yl)amino)phenyl)acrylamide]	–
8.00 to 9.00	8.00 to 9.00	C=CC(=O)Nc1ccccc1Nc1nc(Nc2ccc(N3CCN(C)CC3)cc2)ncc1C1CC1 [Compound 1, N-{2-[(5-cyclopropyl-2-{[4-(4-methylpiperazin-1-yl)phenyl]amino}pyrimidin-4-yl)amino]phenyl}prop-2-enamide]	–
8.00 to 9.00	8.00 to 9.00	C=CC(=O)Nc1ccccc1Nc1nc(Nc2ccc(N3CCN(C)CC3)cc2)ncc1-c1ccc(C(C)=O)cc1 [Compound 8, N-(2-((5-(4-acetylphenyl)-2-((4-(4-methylpiperazin-1-yl)phenyl)amino)pyrimidin-4-yl)amino)phenyl)acrylamide]	–
7.00 to 8.00	8.00 to 9.00	C=CC(=O)Nc1ccccc1Nc1nc(Nc2ccc(N3CCN(C)CC3)cc2)nc2ccoc12 [Compound 12, N-{2-[(2-{[4-(4-methylpiperazin-1-yl)phenyl]amino}furo[3,2-d]pyrimidin-4-yl)amino]phenyl}prop-2-enamide]	–
8.00 to 9.00	8.00 to 9.00	C=CC(=O)Nc1cc(C)ccc1Nc1nc(Nc2ccc(N3CCN(C)CC3)cc2)ncc1Cl [Compound 33, N-{2-[(5-chloro-2-{[4-(4-methylpiperazin-1-yl)phenyl]amino}pyrimidin-4-yl)amino]-5-methylphenyl}prop-2-enamide]	–
8.00 to 9.00	> 9.00	C=CC(=O)Nc1ccccc1Nc1nc(Nc2ccc(N3CCN(C)CC3)cc2)ncc1C(=O)Nc1c(Cl)cccc1Cl [Compound 27, N-(2,6-dichlorophenyl)-2-{[4-(4-methylpiperazin-1-yl)phenyl]amino}-4-{[2-(prop-2-enamido)phenyl]amino}pyrimidine-5-carboxamide]	–
8.00 to 9.00	8.00 to 9.00	C=CC(=O)Nc1ccccc1Nc1nc(Nc2ccc(N3CCN(C)CC3)cc2)ncc1Br [Compound 3, N-{2-[(5-bromo-2-{[4-(4-methylpiperazin-1-yl)phenyl]amino}pyrimidin-4-yl)amino]phenyl}prop-2-enamide]	–
8.00 to 9.00	> 9.00	C=CC(=O)Nc1ccccc1Nc1nc(Nc2ccc(N3CCN(C)CC3)cc2)ncc1-c1ccoc1 [Compound 10, N-(2-((5-(furan-3-yl)-2-((4-(4-methylpiperazin-1-yl)phenyl)amino)pyrimidin-4-yl)amino)phenyl)acrylamide]	–

pIC50: −log10 of the molar value.
